{"source": "PubChem BioAssay AID686978", "about": "(National Center for Advancing Translational Sciences (NCATS), 2013)", "note": "The campaign covered roughly 420,000 compounds. About 64,000 (15%) were called active. The shares of active, inactive and inconclusive entries below differ from those in the screen. Calls follow the shape of the dose curve; as a rule, active = well fitted inhibition curve with a large enough effect; inconclusive = small, poorly fitted or top-dose-only effect; inactive = flat fitted curve, though single readings scatter. Potencies of inconclusive entries are left out as doubtful fits. % is scaled to controls: 0 for no effect and ±100 for the full control effect; potency is read from the fitted curve at half-maximal effect; tags tell the direction and shape of the fitted curve."}
{"test": "qHTS for Inhibitors of human tyrosyl-DNA phosphodiesterase 1 (TDP1): qHTS in cells in absence of CPT; also: nearly all actives have a fitted effect of over 55% in size", "details": "DT40 Tdp1-/- hTDP1 cells, no CPT, ATP luminescence, 48 h; activity change, negative = growth inhibition: at 46.2 µM (top of the series) unless noted", "method_in_brief": "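DT40 Tdp1-/-;hTDP1 cells, no CPT (DMSO vehicle only), 400 cells/well; compounds pin-transferred; ≥48 hr, 37 °C; CellTiter-Glo 30 min RT dark, luminescence read.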"}
{"smiles": "Cc1ccc(NC(=S)Nc2ccc3[nH]c(=O)[nH]c3c2)cc1", "Potency": "inconclusive [inhibitor, single point]"}
{"smiles": "C=CCNC(=O)/C(=C\\c1ccco1)NC(=O)c1ccco1", "activity change, negative = growth inhibition": "inactive: 1.9%"}
{"smiles": "CN(C)c1ccc(CNn2cnnc2SCC(=O)NC(C)(C)C)cc1", "activity change, negative = growth inhibition": "inactive: -6.81%"}
{"smiles": "O=C(Nc1ccc(S(=O)(=O)N2CCCC2)cc1)c1ccc(Cl)nc1", "Potency": "inconclusive [inhibitor, partial curve]"}
{"smiles": "CCOc1ccccc1CNS(=O)(=O)c1ccc2[nH]c(=O)ccc2c1", "Potency": "inconclusive [inhibitor, single point]"}
{"smiles": "CCOC(=O)c1[nH]ncc1CN1CCCC(C(=O)c2cccc3ccccc23)C1", "note": "(configuration not stated)", "activity change, negative = growth inhibition": "inactive: 0.148%"}
{"smiles": "CC(C)N(C(=O)CSc1nnc(-c2cc3ccccc3cc2O)n1Cc1ccco1)C(C)C", "Potency": "active: 20.6 µM"}
{"smiles": "CC(C)Cc1ccc(S(=O)(=O)Nc2cc3c(cc2N2CCOCC2)n(C)c(=O)c(=O)n3C)cc1", "Potency": "inconclusive [inhibitor, single point]"}
{"smiles": "Cc1ccc(C)c(Cn2c(-c3cccs3)nc3ccccc32)c1", "Potency": "inconclusive [inhibitor, single point]"}
{"smiles": "COc1ccccc1C(=O)Nc1nnc(-c2ccc(F)cc2)o1", "activity change, negative = growth inhibition": "inactive: -28.1%"}
{"smiles": "COc1ccc(-c2nnn(CC(=O)N(Cc3ccccc3Cl)C(C(=O)NCC3CCCO3)c3ccco3)n2)cc1OC", "note": "(configuration not stated)", "Potency": "inconclusive [inhibitor, single point]"}
{"smiles": "COc1ccc(Cc2nnc(SCC(=O)c3ccc4c(c3)NC(=O)CO4)o2)cc1", "activity change, negative = growth inhibition": "inactive: -0.647%"}
{"smiles": "Cc1cc(C)cc(NC(=O)C2CCCN(S(=O)(=O)c3c(C)noc3C)C2)c1", "note": "(configuration not stated)", "Potency": "inconclusive [inhibitor, single point]"}
{"smiles": "CCOC(=O)c1oc2nc(C(C)C)c3c(c2c1N)CCC3", "Potency": "inconclusive [inhibitor, single point]"}
{"smiles": "Cc1nnc(NC(=O)CCSc2ccc(Cl)cc2)s1", "activity change, negative = growth inhibition": "inactive: 20.6%"}
{"smiles": "O=C(NCC1CCCCC1)C1CCCN(C(=O)NC2CCCCC2)C1", "note": "(configuration not stated)", "Potency": "inconclusive [inhibitor, single point]"}
{"smiles": "O=C1CSC(=S)N1N=Cc1c(F)cccc1Cl", "Potency": "inconclusive [inhibitor, single point]"}
{"smiles": "COc1cccc(C(C(=O)NC2CCCC2)N(C(=O)c2ccco2)c2ccc(NC(C)=O)cc2)c1OC", "note": "(configuration not stated)", "activity change, negative = growth inhibition": "inactive: -29.6%"}
{"smiles": "CN(C)c1ccc(/C=N/NC(=S)NCc2ccco2)cc1", "Potency": "active: 18.4 µM"}
{"smiles": "CCOC(=O)C1CCCN(C(=O)c2cc3c(=O)[nH]c4ccc(C)cc4c3s2)C1", "note": "(configuration not stated)", "Potency": "inconclusive [inhibitor, single point]"}
{"smiles": "CCOc1c(CNCc2ccc(C(=O)O)cc2)cccc1OC", "activity change, negative = growth inhibition": "inactive: -12.9%"}
{"smiles": "CCC(C(=O)Nc1c(C)cc(C)cc1C)n1c(=O)c(-c2ccccc2NC(C)=O)nc2ccccc21", "note": "(configuration not stated)", "Potency": "inconclusive [inhibitor, single point]"}
{"smiles": "Cc1cccc2nc(CSc3ccc(Cl)cc3)cn12", "Potency": "inconclusive [inhibitor, single point]"}
{"smiles": "S=C(NCCc1ccccc1)NC1CC1", "activity change, negative = growth inhibition": "inactive: -17.4%"}
{"smiles": "Cc1cccc(NC(=O)CCCCCn2c(=O)[nH]c3ccsc3c2=O)c1", "Potency": "inconclusive [inhibitor, single point]"}
{"smiles": "CCCOC(=O)c1ccc(OCC(O)CN2CCN(C(=O)c3ccccc3)CC2)cc1", "note": "(configuration not stated)", "Potency": "inconclusive [inhibitor, single point]"}
{"smiles": "Cc1nn(Cc2ccccc2)c(C)c1C(=O)N1CCN(CC(=O)Nc2ccc(F)cc2)CC1", "Potency": "inconclusive [inhibitor, single point]"}
{"smiles": "O=C(Cc1ccccc1)N1CCC(C(=O)N2CCN(c3ccc(F)cc3)CC2)CC1", "activity change, negative = growth inhibition": "inconclusive: -31.9% [inhibitor]"}
{"smiles": "CNS(=O)(=O)c1ccc(CCC(=O)N2CCN(c3ccccc3OC)CC2)cc1", "Potency": "inconclusive [inhibitor, single point]"}
{"smiles": "CCOc1ccc(CCNC(=O)CCCn2nc(C)c3sc4ccccc4c3c2=O)cc1", "Potency": "inconclusive [inhibitor, partial curve]"}
{"smiles": "OC(CCc1ccncc1)c1ccccc1", "note": "(configuration not stated)", "activity change, negative = growth inhibition": "inactive: 0.0151%"}
{"smiles": "CCCCNC(=O)C1(C)CCC(=O)N1C1CCN(Cc2ccccc2)CC1", "note": "(configuration not stated)", "activity change, negative = growth inhibition": "inactive: 2.99%"}
{"smiles": "O=C(c1ccc(N2CCCC2)c([N+](=O)[O-])c1)N1CCN(CCO)CC1", "activity change, negative = growth inhibition": "inactive: 25.6%"}
{"smiles": "O=C(/C=C/c1ccc(F)cc1)Nc1ccc2[nH]c(=O)[nH]c2c1", "activity change, negative = growth inhibition": "inactive: 0.606%"}
{"smiles": "CCOC(=O)C1CCCCN1Cc1cn(C)nc1-c1ccccc1F", "note": "(configuration not stated)", "Potency": "inconclusive [inhibitor, single point]"}
{"smiles": "CSc1nsc(SC)c1C(=O)N1CCN(S(=O)(=O)c2ccc(C)cc2)C1C(C)C", "note": "(configuration not stated)", "Potency": "inconclusive [inhibitor, single point]"}
{"smiles": "COCC(=O)Oc1cc(-c2ccc(C)cc2C)c(OC(=O)COC)c(-c2ccc(C)cc2C)c1", "Potency": "active: 9.2 µM"}
{"smiles": "Cc1ccccc1CN(C)C(C)C(=O)NCc1ccccc1", "note": "(configuration not stated)", "Potency": "inconclusive [inhibitor, single point]"}
{"smiles": "Cc1cc(=O)oc2ccc(OCC(=O)NCc3ccco3)cc12", "activity change, negative = growth inhibition": "inactive: -1.4%"}
{"smiles": "NCCCC[C@H]1CNC(=S)N1CCc1cc(C(F)(F)F)cc(C(F)(F)F)c1", "Potency": "inconclusive [inhibitor, single point]"}
{"smiles": "Cc1ccc(C(=O)Oc2cccnc2)cc1[N+](=O)[O-]", "activity change, negative = growth inhibition": "inactive: -13.1%"}
{"smiles": "C=CCN(Cc1nc(-c2ccccc2)no1)C(=O)c1ccco1", "Potency": "inconclusive [inhibitor, single point]"}
{"smiles": "COc1cccc(N2CC(NC(=O)CCCc3ccccc3)CC2=O)c1", "note": "(configuration not stated)", "Potency": "inconclusive [inhibitor, single point]"}
{"smiles": "Cc1ccc(NS(=O)(=O)c2c(C)[nH]c(=O)[nH]c2=O)c(C)c1", "Potency": "inactive"}
{"smiles": "COc1ccc(C(=O)NC(=S)NNC(=O)c2cnccn2)cc1OC", "Potency": "inconclusive [inhibitor, single point]"}
{"smiles": "Cc1ccc(C2=Nc3ccccc3SC(c3cccc([N+](=O)[O-])c3)C2)cc1", "note": "(configuration not stated)", "Potency": "active: 16.4 µM"}
{"smiles": "O=C(Cc1ccccc1)Nn1c(O)c(/C=C2\\C=Nc3ccccc32)sc1=S", "Potency": "inconclusive [inhibitor, single point]"}
{"smiles": "C[C@@H](NC(=O)[C@@H]1Cc2ccccc2CN1)C(=O)Nc1ccc2c(c1)OCCO2", "Potency": "inconclusive [inhibitor, single point]"}
{"smiles": "Cc1ccc(NC(=O)Cn2c(=O)oc3cc(S(=O)(=O)N4CCC(C)CC4)ccc32)cc1C", "Potency": "inconclusive [inhibitor, partial curve, poor fit]"}
{"smiles": "Cc1cccc(N2CCN(C(=O)c3cn(CC(C)C)c(=O)c4c3c3ccccc3n4C)CC2)c1C", "Potency": "active: 5.17 µM"}
{"smiles": "Cc1nc(SCC(=O)NC(=O)NCc2ccccc2)nc(C)c1C", "activity change, negative = growth inhibition": "inconclusive: -39.7% [inhibitor]"}
{"smiles": "CN(Cc1ccccc1)C(=O)c1nc2ccccn2c1CN1CCc2sccc2C1", "Potency": "inconclusive [inhibitor, single point]"}
{"smiles": "NC(=O)SCC(=O)Nc1ccc(Cl)cc1", "Potency": "inconclusive [inhibitor, single point]"}
{"smiles": "Cc1cc(OCC(=O)OC(C)C(=O)NC2CC2)c(C(C)C)cc1Cl", "note": "(configuration not stated)", "Potency": "inconclusive [inhibitor, single point]"}
{"smiles": "CCC(Cc1ccccc1)n1c(=S)[nH]c2ccccc2c1=O", "note": "(configuration not stated)", "activity change, negative = growth inhibition": "inactive: -1.04%"}
{"smiles": "CN(C(=O)c1ccc(NC(=O)Cc2cccc(NC(=O)C3CCCN(C(=O)C4CCCCC4)C3)c2)cc1)C1CCCC1", "note": "(configuration not stated)", "Potency": "inconclusive [inhibitor, single point]"}
{"smiles": "Cn1c(=O)cc(SCC(=O)NCCN2CCN(c3ccccc3F)CC2)c2cc(Cl)ccc21", "Potency": "inconclusive [inhibitor, single point]"}
{"smiles": "Cc1ccc(-c2noc(CNC(=O)c3ccc(Br)o3)n2)cc1", "Potency": "inconclusive [inhibitor, single point]"}
{"smiles": "CCOC(=O)Cn1c(=NC(=O)c2nc3ccccc3s2)sc2cc(S(N)(=O)=O)ccc21", "Potency": "inconclusive [inhibitor, full curve, poor fit]"}
{"smiles": "CC(CN1CCNCC1)(NS(=O)(=O)c1ccccc1)c1ccccc1", "note": "(configuration not stated)", "Potency": "inconclusive [inhibitor, single point]"}
{"smiles": "N#Cc1c2n(c3c(=O)n(Cc4ccccc4Cl)cnc13)CCCCC2", "Potency": "inconclusive [inhibitor, single point]"}
{"smiles": "Cc1ccccc1-c1cc2nc(NCCCN(C)C)n(C)c(=O)c2s1", "Potency": "inconclusive [inhibitor, single point]"}
{"smiles": "CSC1=N/C(=C/c2ccc(-n3cncn3)cc2)C(=O)N1", "activity change, negative = growth inhibition": "inactive: -10.2%"}
{"smiles": "COc1ccc(N=CC2=C(O)c3ccccc3C2=O)c(OC)c1", "Potency": "active: 18.4 µM"}
{"smiles": "O=c1cnn(Cc2ccc(F)cc2)c2ccccc12", "Potency": "inconclusive [inhibitor, single point]"}
{"smiles": "CCn1c(=O)[nH]c2cc(Cl)c(Cl)cc21", "activity change, negative = growth inhibition": "inconclusive: -39.4% [inhibitor]"}
{"smiles": "Cc1ccccc1-c1nc2cc(NC(=O)Cc3ccc(Cl)cc3)ccc2o1", "Potency": "active: 20.6 µM"}
{"smiles": "Cc1ccc(NC(=O)C(C)c2cccc(C(=O)c3ccccc3)c2)cc1", "note": "(configuration not stated)", "Potency": "inconclusive [inhibitor, single point]"}
{"smiles": "COCC(=O)Nc1ccc(Br)cc1", "activity change, negative = growth inhibition": "inactive: -2.39%"}
{"smiles": "Cc1ccc(S(=O)(=O)N2CCOCC2)cc1NC(=O)Cn1ccsc1=N", "Potency": "inconclusive [inhibitor, single point]"}
{"smiles": "CNC(C)C(=O)NC(C(=O)N1CCCC1C(=O)Nc1ccc2[nH]ccc2c1)C(C)C", "note": "(configuration not stated)", "activity change, negative = growth inhibition": "inactive: -12.8%"}
{"smiles": "COc1ccc(C(=O)CN2C(=O)C(C)(C)Oc3ccc(C(=O)N4CCCCCC4)cc32)cc1", "Potency": "inconclusive [inhibitor, partial curve]"}
